Assay results taken from PubChem BioAssay AID686979 (National Center for Advancing Translational Sciences (NCATS), 2013).
Screen size: about 420,000 compounds; about 50,000 (12%) were called active. The shares of active, inactive and inconclusive entries below differ from those in the screen. Calls come from the whole dose curve; as a rule, active = well fitted inhibition curve with a large enough effect; inconclusive = small, poorly fitted or top-dose-only effect; inactive = flat fitted curve, though single readings scatter. No potency is given beside an inconclusive call; the fits are too rough.

Assay: qHTS for Inhibitors of human tyrosyl-DNA phosphodiesterase 1 (TDP1): qHTS in cells in presence of CPT; note: nearly all actives have a fitted effect of over 55% in size
Conditions: chicken DT40 Tdp1-/-;hTDP1 cells + 20 nM CPT, ATP luminescence, 48 h; activity change, negative = growth inhibition: at 46.2 µM (top of the series) unless noted
Outline: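 Cell growth measured by CellTiter-Glo luminescence after a minimum 48 h, 37 C compound exposure with 20 nM CPT in Tdp1-knockout DT40 cells stably expressing hTDP1, seeded 400/well; qHTS titration format.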
% is set by controls: 0 for no effect and ±100 for the full control effect; potency is the fitted concentration of half-maximal effect; tags give direction and shape of the fitted curve.

Question: For `Cc1cccc(OCCCn2c(CCNC(=O)C3CCCCC3)nc3ccccc32)c1`, which Potency is on record?
Answer: The Potency was active: 13 µM.

Question: For `COc1ccc(-c2nn(-c3ccccc3)cc2C(=O)O)cc1`, which “activity change, negative = growth inhibition” value is on record?
Answer: The value was inactive: 1.38%.

Question: With `COc1ccc(NC(=O)C2Cc3c(-c4cccc(F)c4)ccnc3O2)cn1` (stereo not given) as the molecule, how does the Potency read?
Answer: Its Potency is inconclusive [inhibitor, single point].

Question: Which Potency does the source give for `CCc1nc2c(OCc3cccc(Cl)c3)cccn2c1N(C)C(=O)C(C)C` here?
Answer: Its Potency is active: 16.4 µM.

Question: With `CCOC(=O)c1cnc2c(C)cccc2c1Nc1ccc(OC(C)C)cc1` as the molecule, how does the Potency read?
Answer: Its Potency is inconclusive [inhibitor, partial curve].

Question: Which Potency does the source give for `Cc1ccc(C)c(N2CCN(c3nc4ccc(C(=O)c5ccccc5)cc4n4cnnc34)CC2)c1` here?
Answer: Its Potency is inconclusive [inhibitor, single point].

Question: Which Potency does the source give for `Cc1ccc(Nc2cc(C)nc(-c3ccccc3)n2)cc1` here?
Answer: Its Potency is inconclusive [inhibitor, single point].

Question: With `O=C(Nc1cc(S(=O)(=O)N2CCOCC2)ccc1Cl)c1cc2ccccc2o1` as the molecule, how does the Potency read?
Answer: The Potency was inconclusive [inhibitor, single point].

Question: Which Potency does the source give for `CCOc1cc(/C=C2\N=C(SCC)SC2=O)cc([N+](=O)[O-])c1OC(C)=O` here?
Answer: Its Potency is inconclusive [inhibitor, single point].

Question: Which Potency does the source give for `COc1ccccc1NC(=O)C1(c2ccccc2)CCCC1` here?
Answer: The Potency was inconclusive [inhibitor, single point].

Question: With `Cc1ccc2c(c1)C(c1ccccc1)N(C(=O)c1ccccc1[N+](=O)[O-])CC(=O)N2` (stereo not given) as the molecule, how does the Potency read?
Answer: The Potency was active: 11.6 µM.

Question: With `COc1ccc(NC(=O)CNC(=O)c2nn(-c3ccc(OC)c(Cl)c3)c(=O)c3ccccc23)c(OC)c1` as the molecule, how does the Potency read?
Answer: Its Potency is inconclusive [inhibitor, single point].

Question: Which Potency does the source give for `COc1ccc(C(=O)N(C)[C@H]2C[C@H]3c4[nH]c5ccccc5c4CCN3C[C@H]2[C@H](C)O)cc1` here?
Answer: The Potency was inconclusive [inhibitor, single point].

Question: For `Cn1c(=O)c2c(nc(CN3CCN(Cc4ccccc4)CC3)n2Cc2cccc(Cl)c2)n(C)c1=O`, which Potency is on record?
Answer: Its Potency is active: 23.1 µM.

Question: For `O=C(NCCc1ccc(Cl)cc1)c1ccc(CSCc2cccc(Cl)c2)o1`, which Potency is on record?
Answer: The Potency was inconclusive [inhibitor, single point].

Question: With `COc1ccc(Br)cc1CNC(=O)CCc1nc(-c2ccc(C)cc2)no1` as the molecule, how does the “activity change, negative = growth inhibition” value read?
Answer: Its value is inactive: -21.6%.

Question: Which Potency does the source give for `O=C(CSc1nc(-c2ccccc2)nc2ccccc12)Nc1nccs1` here?
Answer: Its Potency is inconclusive [inhibitor, partial curve].

Question: Which Potency does the source give for `Cc1ccc([N+](=O)[O-])c(OCc2ncc(Cl)n2C)c1` here?
Answer: The Potency was inconclusive [inhibitor, partial curve, poor fit].

Question: With `Cc1ccc(OCCCCNC2CCCCC2)c(C)c1` as the molecule, how does the Potency read?
Answer: The Potency was active: 20.6 µM.

Question: Which Potency does the source give for `Cn1cc(S(=O)(=O)c2cccc(Cl)c2)c(=O)c2cc(F)c(N3CCCCC3)cc21` here?
Answer: Its Potency is inconclusive [inhibitor, single point].

Question: Which Potency does the source give for `Cc1cc(-c2ccccc2)nc(N2CCN(c3ccccn3)CC2)n1` here?
Answer: Its Potency is inconclusive [inhibitor, single point].

Question: For `Cc1cc(C)c(OCCN2CC(C)OC(C)C2)c(Br)c1` (stereo not given), which Potency is on record?
Answer: Its Potency is inconclusive [inhibitor, partial curve].

Question: With `COc1cc(OC)cc(-c2nnc(NC(=O)CCS(=O)(=O)c3ccc(F)cc3)o2)c1` as the molecule, how does the Potency read?
Answer: The Potency was inconclusive [inhibitor, single point].

Question: Which “activity change, negative = growth inhibition” value does the source give for `Nc1nnc(SCc2c(F)cccc2Cl)s1` here?
Answer: The value was inactive: 8.82%.

Question: With `CCN(CC)c1ncnc2ccc(Br)cc12` as the molecule, how does the Potency read?
Answer: The Potency was inconclusive [inhibitor, partial curve].

Question: For `CC(C)Cc1nc(SCC(=O)NCC2CCCO2)c2c(=O)n(C)c(=O)n(C)c2n1` (stereo not given), which “activity change, negative = growth inhibition” value is on record?
Answer: The value was inactive: 14.9%.

Question: With `Cc1cccc2nc(-c3ccccc3)nc(N[C@@H](CO)c3ccccc3)c12` as the molecule, how does the Potency read?
Answer: Its Potency is inconclusive [inhibitor, single point].

Question: With `COc1ccccc1/C=C1/C(=O)ON=C1C` as the molecule, how does the Potency read?
Answer: The Potency was inconclusive [inhibitor, single point].

Question: Which “activity change, negative = growth inhibition” value does the source give for `Cc1ccc(S(=O)(=O)N2CCCN(S(=O)(=O)c3ccc(C(F)(F)F)cc3)CC2)cc1` here?
Answer: The value was inactive: -10.7%.

Question: With `O=C(c1ccoc1)N1CCC2(CC1)Oc1ccc(Cl)cc1C(=O)C21CC(c2cccnc2)=NO1` (stereo not given) as the molecule, how does the “activity change, negative = growth inhibition” value read?
Answer: The value was inactive: -14%.

Question: For `COc1ccc2c(c1)[nH]c1c(=O)n(/N=C/c3ccc(OC)c(CN4CCCC4)c3)cnc12`, which Potency is on record?
Answer: The Potency was inconclusive [inhibitor, single point].

Question: For `COc1ccc(CSc2nnnn2-c2ccc(C(=O)O)cc2)cc1`, which activity change, negative = growth inhibition is on record?
Answer: The activity change, negative = growth inhibition was inconclusive: 7.94% [inhibitor].

Question: With `Cc1c(NS(=O)(=O)c2cc(C(=O)NCc3ccco3)cc(Cl)c2Cl)c(=O)n(-c2ccccc2)n1C` as the molecule, how does the “activity change, negative = growth inhibition” value read?
Answer: Its value is inactive: -19.2%.

Question: With `Cc1cccc(NC(=O)CS(=O)(=O)c2c[nH]c3ccccc23)c1C` as the molecule, how does the “activity change, negative = growth inhibition” value read?
Answer: Its value is inactive: -10.1%.

Question: Which “activity change, negative = growth inhibition” value does the source give for `CCCCOC(=O)Nc1nnc(CC(=O)NCc2ccccc2)s1` here?
Answer: The value was inactive: 2.02%.

Question: With `Cc1cc(C)cc(OCC(=O)N2CCC(c3nc4ccccc4s3)CC2)c1` as the molecule, how does the Potency read?
Answer: The Potency was inconclusive [inhibitor, single point].

Question: For `O=C(CCC(=O)N1CCOc2ccccc21)Nc1cc(F)ccc1F`, which Potency is on record?
Answer: The Potency was inconclusive [inhibitor, single point].

Question: With `Cc1cc(Br)ccc1OCC(=O)NNC(=O)c1ccc(NC(=O)C2CC2)cc1` as the molecule, how does the Potency read?
Answer: Its Potency is inconclusive [inhibitor, partial curve].

Question: With `CCCN1C(=O)/C(=C/c2cc(C)n(C)c2C)SC1=Nc1ccc(OCC)cc1` as the molecule, how does the Potency read?
Answer: Its Potency is inconclusive [inhibitor, single point].

Question: Which Potency does the source give for `c1ccc(CN2CCN(C3CCCSc4ccccc43)CC2)cc1` (stereo not given) here?
Answer: The Potency was inconclusive [inhibitor, single point].

Question: With `Cc1ccnc2nc(C(=O)Nc3cc(Cl)ccc3N3CCOCC3)nn12` as the molecule, how does the Potency read?
Answer: The Potency was inconclusive [inhibitor, single point].

Question: Which Potency does the source give for `CC(C)C[C@H](NC(=O)c1nc[nH]c1C(=O)N1CCN(C(=O)OC(C)(C)C)CC1)C(=O)OCc1ccccc1` here?
Answer: Its Potency is active: 18.4 µM.

Question: For `Cc1ccc(CN2CCN(Cc3cnc(N4CCOCC4)s3)CC2CCO)o1` (stereo not given), which “activity change, negative = growth inhibition” value is on record?
Answer: Its value is inactive: 2.06%.

Question: With `O=C1CCN(Cc2ccccc2)C=C1C(=O)c1ccccc1` as the molecule, how does the “activity change, negative = growth inhibition” value read?
Answer: The value was inactive: -19.9%.

Question: For `CC(=O)C1=C(S(=O)(=O)c2ccc(C)cc2)CS(=O)(=O)C1`, which Potency is on record?
Answer: The Potency was active: 3.66 µM.
